PubChem BioAssay AID889 (National Center for Advancing Translational Sciences (NCATS), 2007)
About 15 (0.02%) of roughly 75,000 compounds were called active. This list was built around the results that the source calls inconclusive (neither active nor inactive); the mix of calls is not that of the screen. Calls follow the shape of the dose curve; as a rule, active = well fitted inhibition curve with a large enough effect in the main read-out, with a control signal flat (not every such curve was filed as active); inconclusive = small, poorly fitted or top-dose-only effect, or a change in a side signal; inactive = flat fitted curve, though single readings scatter. A potency beside an inconclusive call is a rough fit, not a confirmed value. “Side channel” marks fits to a control or component signal instead of the main read-out.

Target: Caspase-7 (Homo sapiens) (UniProt P55210)
Chain of UniProt P55210 (P55210 whole entry, looked up): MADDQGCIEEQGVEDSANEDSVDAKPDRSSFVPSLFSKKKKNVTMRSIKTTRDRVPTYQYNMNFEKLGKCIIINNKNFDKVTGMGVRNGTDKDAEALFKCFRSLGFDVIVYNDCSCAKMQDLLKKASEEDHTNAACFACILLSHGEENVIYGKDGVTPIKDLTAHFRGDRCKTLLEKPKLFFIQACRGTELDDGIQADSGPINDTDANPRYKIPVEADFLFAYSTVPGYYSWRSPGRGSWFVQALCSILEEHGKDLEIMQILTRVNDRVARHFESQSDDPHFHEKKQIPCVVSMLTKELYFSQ
Assay: qHTS Assay for Allosteric/Competitive Inhibitors of Caspase-7; as to activity change, negative = inhibition: % of control where 0% means no effect
Settings: recombinant caspase-7, Ac-DEVD-AFC fluorescence rate; activity change, negative = inhibition: at 57.5 µM (top of the series) unless noted
Source text: NIH Molecular Libraries Screening Centers Network [MLSCN]
NIH Chemical Genomics Center [NCGC]
PI Name: Dr. James Wells,
Dr. Enrique Perez-Paya, Dr.Janice Williams, Dr. Dennis Wolan, a person
The caspases (Cysteine Aspartyl Protease) comprise a related family of 14 dimeric proteases that are critical mediators of apoptosis (programmed cell death) and inflammation. The caspases represent an important class of drug targets for stroke, ischemia, cancer and inflammatory diseases. […] One goal of this project was to identify compounds that act as allosteric inhibitors via stabilizing the procaspase form of the enzyme. Previous work in Well's laboratory has shown that such allosteric inhibitors can be identified and these act by binding at the dimer interface of enzyme (Hardy, Lam et al., 2004).
The biochemical assay was configured using purified caspase 7 at a high enzyme concentration to promote formation of the homodimers and thus facilitate the identification of allosteric inhibitors. The overall goal was to identify reversible inhibitors with better drug-like properties than the currently available set of aspartyl-containing peptidomimetics that covalently bind the active site. Caspase 7 was assayed using the profluorescent substrate Ac-DEVD-AFC. After initiation of the assay with substrate the plates were rapidly read using an automated robotic system (Kalypsys, Inc.) to maintain consistent timing. A kinetic mode of detection was used where the initial rate was collected (estimated final product formation was ~10%). Compounds were screened as a concentration-titration series that ranged from 57 uM to 0.7 nM. Below is the protocol used for caspase 7.
NCGC Assay Protocol Summary:
Caspase 7 was prepared in buffer (50 mM HEPES pH 7.5, 50 mM KCl, 200 mM NaCl, 10 mM DTT, 0.1% CHAPS) at a concentration of 66.6 nM and 3 uL was dispensed to all wells using black solid Kalypsys 1536-well plates. 20 nL of DMSO containing compounds was added using a pin-tool (Kalypsys Inc.) to columns 5-48. Then 20 nL of DMSO solution from a control plate was added to columns 1-4. Controls were: Column 1, 16 point titration with each concentration in duplicate (1:1 dilutions in DMSO; final starting concentration was 57 uM) of the caspase 7 inhibitor Ac-DEVD-CHO (Alexis Biochemicals); Column 2, a 16 point titration with each concentration in duplicate of the free AFC fluorophore prepared in DMSO (Alexis Biochemicals), final starting was 40 uM; Column 3 neutral (DMSO only) control; Column 4: DMSO alone, to serve as a negative control (no substrate was added). Then 1 uL of 20 uM the substrate Ac-DEVD-AFC (Alexis Biochemicals) prepared in the same buffer was dispensed to all wells except columns 2 and 4 and the plates were immediately transferred (< 1 min) to the Viewlux. The plates were then exposed using 405 nm excitation/520 nm emission filters for 4 sec and read at 20 sec intervals for 3 min. Final enzyme concentration was 50 nM and the final substrate concentration was 5 uM.
Concentration-response curves were fitted to the data calculated from slope of the linear regression of fluorescent intensity versus time (the rate). The concentration-effect curves were then classified based on curve quality (r2), response magnitude and degree of measured activity. […] Inconclusive compounds had appreciable concentration-dependent effects on both the measured rate and the interpolated basal fluorescence intensity at the start of the reaction but where the basal fluorescent intensity was marginal (e.g. < 10-fold). Inconclusive compounds also encompass highly fluorescent compounds (>100-fold increases in fluorescent intensities values relative to controls) where artificial concentration-dependent decreases in the rate occurred at high compound concentrations due to fluorescent interferences.
Keywords: Caspase 7, proteases, profluorescent, MLSMR, MLSCN, NIH Roadmap, qHTS, NCGC
Potency is read from the fitted curve at half-maximal effect; tags tell the direction and shape of the fitted curve or compound fluorescence and quenching.

SMILES | Potency | activity change, negative = inhibition
COc1ccc(-c2nc3cnc(OCc4ccccc4)nc3n(CCC#N)c2=O)cc1 | inconclusive: 12.6 µM [fluorescent, partial curve] | 
CN(C)c1ncc2nc(-c3ccc(Cl)cc3)c(=O)n(-c3ccccc3)c2n1 | inconclusive: 1.26 µM [fluorescent, side channel, partial curve] | 
O=c1c2ccccc2oc2ccccc12 | inconclusive: 25.1 µM [fluorescent, partial curve] | 
O=c1c(-c2cccs2)nc2cnc(Oc3cccc(Cl)c3)nc2n1C[C@H]1CCCO1 | inconclusive: 10 µM [fluorescent, side channel, partial curve] | 
O=c1oc2c(CN3CCOCC3)c(O)ccc2c2c1CCC2 | inconclusive: 25.1 µM [fluorescent, partial curve] | 
Cn1c(C(=O)NCc2ccccn2)cc2c(=O)n3ccccc3nc21 | inconclusive: 3.98 µM [fluorescent, side channel, full curve] | 
c1coc(-c2nc3c4c5c(sc4ncn3n2)CCCC5)c1 |  | inactive: -0.678%
COc1cccc(-c2nc(Cc3ccc(OC)c(OC)c3)no2)c1 |  | inactive: -1.99%
COCCNC(=O)CSc1nc2ccc(N3CCOCC3)cc2c(=O)n1CCc1ccccc1 |  | inactive: -23.8%
CCCC(=O)Nc1nn(C)c2nc3c(C)cccc3cc12 | inconclusive: 3.16 µM [fluorescent, side channel, partial curve] | 
CC1(C)C(=O)NC2=C1C(=O)C(=O)c1ccccc12 |  | inactive: -13.4%
CCOC(=O)c1cc2c(=O)n3ccccc3nc2n(CCCOC)c1=NC(=O)c1cccnc1 | inconclusive: 25.1 µM [fluorescent, partial curve] | 
c1ccc2c3c([nH]c2c1)[C@@H]1[C@H]2CC[C@H]([C@H]4CCCN[C@H]42)N1CC3 | inconclusive: 7.94 µM [fluorescent, side channel, partial curve] | 
CC(C)C(=O)Nc1c(C(=O)c2ccc(F)cc2)oc2ccccc12 | inconclusive: 31.6 µM [inhibitor, single point] | 
C=CCn1c(SCCC#N)nnc1-c1ccncc1 |  | inactive: -0.748%
CCCC/C=C/C(NC(=O)c1cccs1)c1ccccc1 (centres undefined) |  | inactive: -2.73%
COCCCNC(=O)c1c(N)n(-c2ccc3c(c2)OCO3)c2nc3ccccc3nc12 | inconclusive: 25.1 µM [inhibitor, single point] | 
N#CC1=C(N)SC(N)=C(C#N)C1c1ccoc1 | inconclusive: 31.6 µM [inhibitor, single point] | 
Fc1ccc(-c2nnc3sc(-c4ccc5c(c4)OCO5)nn23)cc1 |  | inactive: -2.97%
Cc1ccccc1Cn1nc(C)c(NC(=O)c2cc3nc(-c4ccco4)cc(C(F)(F)F)n3n2)c1C | inconclusive: 31.6 µM [inhibitor, single point] | 
CCCCC(C=O)CC (centres undefined) |  | inactive: -1.75%
Cc1c(O)ccc2c3c(c(=O)oc12)CCCC3 | inconclusive: 15.8 µM [fluorescent, partial curve] | 

SMILES | Potency | activity change, negative = inhibition
CS(=O)(=O)N1CCCC(C(=O)NCc2ccccc2Cl)C1 (centres undefined) |  | inactive: -2.83%
N#CCCn1c(=O)c(-c2ccc(Cl)cc2)nc2cnc(Nc3ccccc3)nc21 | inconclusive: 7.94 µM [fluorescent, partial curve] | 
O=C(CN1CCc2ccccc2C1)N1CCN(S(=O)(=O)c2ccccc2)CC1 |  | inactive: -0.74%
COc1ccc(-c2nc3cnc(N(C)C)nc3n(Cc3ccc(F)cc3)c2=O)cc1 | inconclusive: 6.31 µM [fluorescent, side channel, partial curve] | 
CC1CN(C(=O)c2cc3c(=O)n4ccccc4nc3s2)CC(C)O1 (centres undefined) | inconclusive: 15.8 µM [fluorescent, partial curve] | 
CCc1cc2c(=O)c(-n3cnc4ccccc43)coc2cc1O | inconclusive: 31.6 µM [inhibitor, single point] | 
CC(C)C(=O)Nc1ccccc1N1CCN(S(C)(=O)=O)CC1 | inconclusive: 3.98 µM [fluorescent, side channel, partial curve] | 
COCCn1c(-c2ccco2)nc2nc3ccccc3nc21 | inconclusive: 15.8 µM [fluorescent, partial curve] | 
COc1ccc(-c2cc(C(F)(F)F)n3ncc(C(=O)NCc4ccco4)c3n2)cc1 | inconclusive: 5.01 µM [inhibitor, full curve] | 
N#Cc1c2n(c3c(=O)n(Cc4ccc(Cl)cc4)cnc13)CCCCC2 |  | inactive: -1.94%
COc1ccc(OC)c(-c2ccccc2/C=N/NS(=O)(=O)c2ccc(C)cc2)c1 |  | inactive: -1.94% [at 11.5 µM]
O=c1c(-c2ccc(Cl)cc2)nc2cnc(Nc3ccccc3)nc2n1C[C@H]1CCCO1 | inconclusive: 3.98 µM [fluorescent, side channel, partial curve] | 
Cc1cccc2cc(C#N)c(NCCCn3ccnc3)nc12 | inconclusive: 20 µM [fluorescent, side channel, partial curve] | 
COc1cccc(C(=O)NC2=NCCS2)c1 |  | inactive: -0.507%
CCOC(=O)C1=C(C)NC2=C(C(=O)CCC2)C1c1cccnc1 (centres undefined) | inconclusive: 25.1 µM [fluorescent, partial curve] | 
O=C(COC(=O)c1n[nH]c2ccccc12)NC(=O)NC12CC3CC(CC(C3)C1)C2 | inconclusive: 15.8 µM [inhibitor, partial curve] | 
CCNc1ncc2nc(C)c(=O)n(Cc3cccs3)c2n1 |  | inactive: -17.7%
Cc1c(C)c2cc(Cl)c(O)c(CN(C)C)c2oc1=O | inconclusive: 12.6 µM [fluorescent, side channel, partial curve] | 
Cc1[nH]c2ccc(F)cc2c(=O)c1SC(F)(F)C(F)F |  | inactive: 4.72%
CC(C(=O)O)N1C(=O)c2cccc3cccc1c23 (centres undefined) | inconclusive: 31.6 µM [inhibitor, single point] | 
CSCCC(NC(C)=O)C(=O)Oc1ccc2c3c(c(=O)oc2c1)CCCC3 (centres undefined) | inconclusive: 15.8 µM [inhibitor, partial curve] | 
Cn1c(C(=O)N2CCc3ccccc3C2)cc2c(=O)n3ccccc3nc21 | inconclusive: 15.8 µM [fluorescent, partial curve] | 
